Experimental data: the RNAGym collection of RNA variant scans (doi:10.1101/gad.245936.114)
This sample is rich in variants without activity.

B1: tRNA (parent)
chain: CUCUCGGUAGCCAAGUUGGUUUAAGGCGCAAGACUUUAAUUUAUCACUACGAAAUCUUGAGAUCGGGCGUUCGACUCGCCCCCGGGAGAUUUUUUCCUCGAGCAA

Variants of: B1
Experiment: nonsense suppression (GFP-seq) (ratio to wild type); higher = more function; SUP4oc tRNA, yeast GFP reporter sort-seq
Summary of the method: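 Yeast carrying genome-integrated SUP4oc tRNA variants from a library with ~3% random mutations were grown in raffinose/galactose medium with 80 mg/L adenine. Each strain also carried a galactose-driven GFP ochre reporter and RFP. Cells were sorted into GFP/RFP bins, and each bin was Illumina-sequenced (phred ≥30). Nonsense suppression (GFPSEQ) is the bin median GFP/RFP, weighted by each variant's estimated cell share per bin, relative to wild-type SUP4oc; variants needed ≥100 reads and ≥30 cells.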

Variant	nonsense suppression
G25A A33G	≤ 0.026
G25U U55G G85A	≤ 0.026
A24C A87G	0.479
A24C G65U C75G G85U	≤ 0.026
A24U G28A U55C	≤ 0.026
A24C G65A	0.0366
A24C G65U	0.0266
A24G U71A	≤ 0.026
G26A A89C	≤ 0.026
G26A A89G	≤ 0.026
G26A C68A	≤ 0.026
G25U C82U	≤ 0.026
G26A C34A	≤ 0.026
G25A A30C	≤ 0.026
A24C U55A G61U	≤ 0.026
G25U C56A	≤ 0.026
A24G U63C	≤ 0.026
A24C G32U	0.043
A24G A30C G67C	≤ 0.026
A23U U57A G66A C68U	≤ 0.026
A24C G67U G85U	≤ 0.026
G25A G69C U76A	≤ 0.026
A24C G65A C79G G85C	≤ 0.026
A24C G28A G66C	≤ 0.026

Variant	nonsense suppression
A24C G25U G26U G69C	≤ 0.026
A24G G25C A31U C75G	≤ 0.026
G25C U76G	≤ 0.026
A24U G84U	≤ 0.026
A24U G28A A33U U57A G69U	≤ 0.026
G25C U55G C72G C82G	≤ 0.026
A24G U35G U55G	≤ 0.026
A24C C34G	≤ 0.026
A24C A33C G59A	≤ 0.026
G25C C81A	≤ 0.026
G25A U55C G84A	≤ 0.026
A24U U70A G86A	≤ 0.026
G26A U76C	≤ 0.026
A24C G65A C83A	≤ 0.026
A23U U58A	≤ 0.026
G25U U57G G66C G88U	≤ 0.026
G26A U57C G67C G73A C82A	≤ 0.026
A24G C27A A30U C75G	≤ 0.026
A24G A31G C34G U55A C75A	≤ 0.026
G25C A89U	≤ 0.026
G25A G86A	≤ 0.026
G25A C68A	≤ 0.026
A24U C34A U35A	≤ 0.026
A24U U57G	≤ 0.026

Variant	nonsense suppression
A24U U57A	≤ 0.026
A24C U76C	0.88
G26A A30C U71G	≤ 0.026
A24U C27G	≤ 0.026
A24U C27U	≤ 0.026
G25C G61A C80A	≤ 0.026
G25C A33U U71A C79A A89U	≤ 0.026
G25U C27G G28C U35G U70G	≤ 0.026
A24U C56A G73C	≤ 0.026
A24C G85C	≤ 0.026
A24C G85U	0.258
G26A C82A G86A	≤ 0.026
G25C G88C	≤ 0.026
G25C G88A	≤ 0.026
G25A G73C A87U	≤ 0.026
G25U C56U U71C	≤ 0.026
G26C A31G U76C	≤ 0.026
G26A U71G	≤ 0.026
A24U A31G	0.229
G25U G67C C77G G78C	≤ 0.026
A24C A62C U76G	≤ 0.026
A23U G85A	≤ 0.026
A24U U55A	≤ 0.026
A24U U55C	0.104

Variant	nonsense suppression
A24C G65A U76G	≤ 0.026
G25A C56G G78U	≤ 0.026
G26A C56A G67A	≤ 0.026
G25U C34U G59A	1.15
A24C G67C G84U	≤ 0.026
G25A A62G	≤ 0.026
A24U C56G	≤ 0.026
A24G G25C U76A	≤ 0.026
A24C G59U	≤ 0.026
A24G A30G C68A C72U	≤ 0.026
G25A C29A G84C	0.027
G25A G28U G32C A74C	≤ 0.026
G25C A60G	0.0619
G26A G61C C68A C83U	≤ 0.026
A24U C82G	≤ 0.026
G25U U63C	≤ 0.026
G25U U63G	0.0371
A24U A87U	≤ 0.026
A24C C27G C29U A62C U63G	≤ 0.026
G25A C34A	≤ 0.026
G26A A30C G73C G88U	≤ 0.026
A24G G85A	0.189
A24G G26A C80A G86U	≤ 0.026
A24G A33C C56U G84A	≤ 0.026

Variant	nonsense suppression
G26A G32A	≤ 0.026
A24C A31C G78C	≤ 0.026
G25U C34G G85A	≤ 0.026
A24G A87U	≤ 0.026
G25U G86A	≤ 0.026
A24U G66A	≤ 0.026
G26A A30G U63G	≤ 0.026
G26A U57C	≤ 0.026
G25C G78C	≤ 0.026
G25C G78A	≤ 0.026
G25U G61U A62G	≤ 0.026
G25U A60C G78A	≤ 0.026
A24C C72G	0.0618
G25C U55C	≤ 0.026
G25C U55A	≤ 0.026
A24G G65A A74C	≤ 0.026
A24U A30C C83A	≤ 0.026
G25A C77G C82U A89C	≤ 0.026
A24C C27G A62C U76G	≤ 0.026
G25A A30U C34A U58A	≤ 0.026
A24C U58G G86U	≤ 0.026
G26A C34U U55C C56G U63A	≤ 0.026
G26A U58G A62G G66C U71C	≤ 0.026
A24G A54U	0.0262

Variant	nonsense suppression
A24C C80G	≤ 0.026
G25U A60G G66A	≤ 0.026
A24U C29A C79U	≤ 0.026
A24C A60C	0.0269
G26A G59A	≤ 0.026
G25U G67U U76A	≤ 0.026
G25U G67C	≤ 0.026
G25U U63C U76G	≤ 0.026
A24G C75A	0.24
G25U G85A	≤ 0.026
G25A G28U C83A G84C G86A	≤ 0.026
G25C A30G A33U	≤ 0.026
G25C G78A C81A	≤ 0.026
A24C C34A G69U	≤ 0.026
A24C C29G G61A U71C	≤ 0.026
A24G C82U G88C	≤ 0.026
G25U C29U U35C C77U	≤ 0.026
G25C C56A A62C G73C	≤ 0.026
G25U G61C C81U	≤ 0.026
G25U G26C C64G C79U	≤ 0.026
G25U C77A	≤ 0.026
A24C A30C C34G	≤ 0.026
G25U G61C	≤ 0.026
A24C U55G C79G	≤ 0.026

Variant	nonsense suppression
G25U U71C	≤ 0.026
A23U U71G A74G	≤ 0.026
G25U A30U U71C	≤ 0.026
A24U C75U C81U	≤ 0.026
G25U A33C A87U	≤ 0.026
A24U C81A	≤ 0.026
G25U G26A A74C	≤ 0.026
A24C C56U	≤ 0.026
A24C U35G	≤ 0.026
A24U A33C U58A U70G	≤ 0.026
G25A G26A C27U C29G A54G	≤ 0.026
A24U G61U G65C G69A U71C G88A	≤ 0.026
G25U A31U G65A C82G	≤ 0.026
A24C U71A G78C C80A A87U	≤ 0.026
G25C A31G A54U	≤ 0.026
A24U U58C G85A	≤ 0.026
A24C A30U A54C U58G C75A	0.783
A23U U58C G65A G67A G78A	≤ 0.026
G25C C82U	≤ 0.026
G25C C82G	≤ 0.026
A24C G67U G86C	≤ 0.026
A24G G67A U70G	≤ 0.026
G25A A30U U76C	≤ 0.026
